Source: patent US20240076403A1 (SIMCERE ZAIMING PHARMACEUTICAL, published 2024)

How the values were obtained:
monkey HER2-His protein [1] = target: T1, monkey HER2-His protein (monkey); experiment: ELISA, coated monkey HER2-His
T1 construct: Bought protein; also called monkey HER2 protein

[2] = target: T2, recombinant human HER2-His protein (human, UniProt P04626 partial chain, limits assumed); experiment: SPR, antibody captured on Protein A chip, human HER2-His analyte, 1:1 model
T2 construct: also called human HER2 protein; not shown: His tag

monkey HER2-His protein [3] = target: T1, monkey HER2-His protein; experiment: SPR, antibody captured on Protein A chip, monkey HER2-His analyte, 1:1 model
murine HER2-His protein [4] = target: T3, murine HER2-His protein (murine, UniProt P70424 23-653); experiment: SPR, antibody captured on Protein A chip, murine HER2-His analyte, 1:1 model
T3 construct: Bought protein; also called murine HER2 protein; not shown: His tag

[5] = target: T4, monkey HER2 on HEK293T-monkey-HER2 cells (monkey); experiment: FACS on HEK293T-monkey-HER2 cells
T4 construct: whole, on cells

murine HER2-His protein [6] = target: T3, murine HER2-His protein; experiment: ELISA, coated murine HER2-His
T3 sequence (P70424 23-653): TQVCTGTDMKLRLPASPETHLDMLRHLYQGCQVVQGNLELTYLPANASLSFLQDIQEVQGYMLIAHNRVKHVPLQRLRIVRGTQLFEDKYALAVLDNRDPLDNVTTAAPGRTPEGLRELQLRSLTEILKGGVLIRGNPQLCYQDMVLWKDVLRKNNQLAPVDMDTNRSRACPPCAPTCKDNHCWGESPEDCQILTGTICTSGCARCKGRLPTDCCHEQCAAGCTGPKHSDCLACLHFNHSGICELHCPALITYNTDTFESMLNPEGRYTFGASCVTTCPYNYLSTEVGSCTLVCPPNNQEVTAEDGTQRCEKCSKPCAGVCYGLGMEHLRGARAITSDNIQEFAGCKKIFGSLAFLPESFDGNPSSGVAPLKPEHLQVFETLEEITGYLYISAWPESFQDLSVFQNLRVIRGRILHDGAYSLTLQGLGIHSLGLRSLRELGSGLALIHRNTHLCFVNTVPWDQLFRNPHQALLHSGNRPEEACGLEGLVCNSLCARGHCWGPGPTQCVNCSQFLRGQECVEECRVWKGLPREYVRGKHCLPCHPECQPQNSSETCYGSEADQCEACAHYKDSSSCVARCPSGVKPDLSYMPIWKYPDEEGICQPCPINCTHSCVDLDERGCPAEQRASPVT

B1: NB147-36 VHH-hFc (Fc fusion)
chain: QLQLVESGGGLVQPGGSLRLSCAASGFTLDYHAIGWFRQAPGKEREGVSCISSSGGRINYADSVKGRFTISRDMTKNTVYLELNSLKPEDTAIYYCAAEIFDSSWYCPLSRNNMNYWGKGTLVAVSS[human IgG1 Fc with changes not written out]
notes: the junction is not described
OD450 nm at 0.0001 nM antibody (monkey HER2-His protein [1]): 0.05 OD450 nm | OD450 nm at 0.001 nM antibody (monkey HER2-His protein [1]): 0.06 OD450 nm | OD450 nm at 0.01 nM antibody (monkey HER2-His protein [1]): 0.19 OD450 nm | OD450 nm at 0.1 nM antibody (monkey HER2-His protein [1]): 1.16 OD450 nm | OD450 nm at 1 nM antibody (monkey HER2-His protein [1]): 2.66 OD450 nm | OD450 nm at 10 nM antibody (monkey HER2-His protein [1]): 2.91 OD450 nm | OD450 nm at 100 nM antibody (monkey HER2-His protein [1]): 2.93 OD450 nm | Kd [2]: 56.1 nM | koff [2]: 0.00639 s⁻¹ | kon [2]: 114000 M⁻¹ s⁻¹ | Kd (monkey HER2-His protein [3]): 44.2 nM | koff (monkey HER2-His protein [3]): 0.0145 s⁻¹ | kon (monkey HER2-His protein [3]): 327000 M⁻¹ s⁻¹ | Kd (murine HER2-His protein [4]): 135 nM | koff (murine HER2-His protein [4]): 0.0125 s⁻¹ | kon (murine HER2-His protein [4]): 92600 M⁻¹ s⁻¹ | EC50 [5]: 3.48 nM | Max MFI [5]: 16100 MFI | OD450 nm at 0.0001 nM antibody (murine HER2-His protein [6]): 0.05 OD450 nm | OD450 nm at 0.001 nM antibody (murine HER2-His protein [6]): 0.07 OD450 nm | OD450 nm at 0.01 nM antibody (murine HER2-His protein [6]): 0.19 OD450 nm | OD450 nm at 0.1 nM antibody (murine HER2-His protein [6]): 1.17 OD450 nm | OD450 nm at 1 nM antibody (murine HER2-His protein [6]): 2.72 OD450 nm | OD450 nm at 10 nM antibody (murine HER2-His protein [6]): 2.87 OD450 nm | OD450 nm at 100 nM antibody (murine HER2-His protein [6]): 2.89 OD450 nm
